Results on ten substances are retold here after publication PMC3521654, “The Nuclear Chaperone Nucleophosmin Escorts an Epstein-Barr Virus Nuclear Antigen to Establish Transcriptional Cascades for Latent Infection in Human B Cells” (PLoS Pathogens, 2012).

The chains behind the UniProt entries cited, without tags or fusion partners. Where a name states a change or a piece, a line headed by the entry shows the natural chain unless it says otherwise. A line that says so, or that is headed by a name, gives the form on record, which may keep a tag or linker.
UniProt P06748: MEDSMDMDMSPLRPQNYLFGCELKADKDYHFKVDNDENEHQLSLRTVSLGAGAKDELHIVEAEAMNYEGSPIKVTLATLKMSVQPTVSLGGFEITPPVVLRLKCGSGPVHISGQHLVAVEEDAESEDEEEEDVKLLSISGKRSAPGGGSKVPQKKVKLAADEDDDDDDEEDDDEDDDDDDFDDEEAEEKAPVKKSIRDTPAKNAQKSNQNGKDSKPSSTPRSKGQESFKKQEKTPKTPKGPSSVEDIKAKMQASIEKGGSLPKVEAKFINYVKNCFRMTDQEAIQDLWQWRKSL
flag-tagged NPM1 ATP-binding mutant K_(257/263)R (P06748, form named): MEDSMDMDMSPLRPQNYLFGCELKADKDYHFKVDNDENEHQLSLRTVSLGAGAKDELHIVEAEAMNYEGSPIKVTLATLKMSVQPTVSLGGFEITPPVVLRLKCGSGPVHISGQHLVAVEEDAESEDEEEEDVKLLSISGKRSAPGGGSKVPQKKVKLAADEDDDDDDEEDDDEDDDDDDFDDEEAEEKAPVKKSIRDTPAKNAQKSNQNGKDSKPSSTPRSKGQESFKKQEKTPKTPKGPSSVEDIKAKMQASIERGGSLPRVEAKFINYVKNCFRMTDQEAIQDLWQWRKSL
UniProt Q06330: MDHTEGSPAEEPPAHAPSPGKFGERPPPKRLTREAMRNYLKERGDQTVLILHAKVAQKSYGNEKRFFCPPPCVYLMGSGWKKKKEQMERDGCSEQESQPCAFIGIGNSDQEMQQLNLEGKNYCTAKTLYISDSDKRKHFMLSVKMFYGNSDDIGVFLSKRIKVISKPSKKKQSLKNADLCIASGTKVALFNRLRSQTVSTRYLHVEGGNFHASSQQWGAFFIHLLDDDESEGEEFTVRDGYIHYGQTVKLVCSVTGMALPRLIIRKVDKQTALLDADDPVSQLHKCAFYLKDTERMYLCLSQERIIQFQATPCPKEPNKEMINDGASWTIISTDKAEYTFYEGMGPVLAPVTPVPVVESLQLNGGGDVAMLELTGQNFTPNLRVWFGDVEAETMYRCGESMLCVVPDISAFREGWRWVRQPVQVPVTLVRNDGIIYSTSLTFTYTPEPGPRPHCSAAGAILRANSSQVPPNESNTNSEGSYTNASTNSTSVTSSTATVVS

Experiment [1] addresses flag-tagged wild type NPM1 (FNPM1) (UniProt P06748). The experiment can be described thus: co-IP.
Experiment [2] concerns the target EBNA2 from the transfected expression vector (pSG5-EBNA2, E2) (Epstein-Barr virus) (UniProt P12978). Kind of experiment: co-IP; cells co-transfected with EBNA2 and FNPM1 or ATP-binding mutants (methods: 293T, 3 µg each); Western blot; which protein was precipitated is not told. A general note: In western blotting, separated proteins are transferred to a membrane and probed.

Experiment [3] has as its target GST-E2 300–360 (Epstein-Barr virus) (UniProt P12978). The experiment can be described thus: pull-down; GST-E2 300–360 as bait, lysates of BJAB cells (10^7) transfected with 30 µg of flag-tagged NPM1 vectors, 24 hours after transfection; immunoblot with M2 antibody; only the target purified.
For experiment [4] the target is unchanged. Kind of experiment: pull-down; only the target purified.
In experiment [5] the target is RBP-Jκ, endogenous (human (endogenous in BJAB-E2, BJAB and IB4)) (UniProt Q06330). Kind of experiment: co-IP.
The target in experiment [6] is GST-E2 300–335 (Epstein-Barr virus) (UniProt P12978). The experiment can be described thus: pull-down; only the target purified.
Experiment [7] concerns the target GST-E2 300–432 (Epstein-Barr virus) (UniProt P12978). Kind of experiment: pull-down; only the target purified.
The target in experiment [8] is GST-E2 335–360 (Epstein-Barr virus) (UniProt P12978). The experiment can be described thus: pull-down; only the target purified.
Experiment [9] deals with GST-E2 360–432 (Epstein-Barr virus) (UniProt P12978). The experiment can be described thus: pull-down; only the target purified.

No constants are given. Whether binding was seen depends on the method and setting. Binding seen in cells or lysates may run through a third protein. Some results given as binding are weak or reduced against the parent protein; the word gives no strength.

Turning to “RBP-Jκ, endogenous (from UniProt Q06330 1-500)”, the binding entry in experiment [1] is reported as “binds”.

Consider “flag-tagged NPM1 ATP-binding mutant K263R (from UniProt P06748 1-294)”, for which the binding entry in experiment [2] is recorded as “no binding”.

For the substance “flag-tagged NPM1 ATP-binding mutant K_(257/263)R (from UniProt P06748 1-294)”, the binding entry in [2] is “no binding”.

On to “flag-tagged NPM1 point mutant G105A (from UniProt P06748 1-294)”, for which the binding result in experiment [3] is given as “no binding”.

For “flag-tagged NPM1 point mutant L102A (from UniProt P06748 1-294)”, the binding entry in experiment [3] is “no binding”.

“flag-tagged NPM1 point mutant S106A (from UniProt P06748 1-294)”: in experiment [3], the binding entry is given as “no binding”.

Take “flag-tagged NPM1 truncated deletion mutant N1 (120–294) (from UniProt P06748 120-294) (domain or fragment)”: the binding result in [4] was “no binding”.

For the substance “flag-tagged NPM1 truncated deletion mutant N2 (194–294) (from UniProt P06748 194-294) (domain or fragment)”, the binding entry in experiment [4] is on record as “no binding”.

“flag-tagged wild type NPM1 (FNPM1) (from UniProt P06748 1-294)”: in experiment [2], the binding entry is given as “binds”.

On to “nucleophosmin (NPM1), endogenous (from UniProt P06748 1-294)”, for which the binding result was “binds” in experiment [5]; “no binding” in experiment [6]; “binds” in experiment [7]; “no binding” in experiment [8]; “no binding” in [9].
